# Data: paper PMC4336329 (PLoS ONE, 2015)
# The whole screen tested about 310,000 compounds, of which about 14,000 (4.5%) showed an effect of 50% or more. Effects have a minus sign here. This is one part of the list.
# Molecular target: human ether-à-go-go-related gene (hERG) potassium channel (human, UniProt Q12809)
# Assay: primary screen, population patch clamp on CHO cells stably expressing hERG
# 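Note: peak tail current of the secondary pulse compared with the same well before compound.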
# Chain of human ether-à-go-go-related gene (hERG) potassium channel (Q12809 whole entry, looked up): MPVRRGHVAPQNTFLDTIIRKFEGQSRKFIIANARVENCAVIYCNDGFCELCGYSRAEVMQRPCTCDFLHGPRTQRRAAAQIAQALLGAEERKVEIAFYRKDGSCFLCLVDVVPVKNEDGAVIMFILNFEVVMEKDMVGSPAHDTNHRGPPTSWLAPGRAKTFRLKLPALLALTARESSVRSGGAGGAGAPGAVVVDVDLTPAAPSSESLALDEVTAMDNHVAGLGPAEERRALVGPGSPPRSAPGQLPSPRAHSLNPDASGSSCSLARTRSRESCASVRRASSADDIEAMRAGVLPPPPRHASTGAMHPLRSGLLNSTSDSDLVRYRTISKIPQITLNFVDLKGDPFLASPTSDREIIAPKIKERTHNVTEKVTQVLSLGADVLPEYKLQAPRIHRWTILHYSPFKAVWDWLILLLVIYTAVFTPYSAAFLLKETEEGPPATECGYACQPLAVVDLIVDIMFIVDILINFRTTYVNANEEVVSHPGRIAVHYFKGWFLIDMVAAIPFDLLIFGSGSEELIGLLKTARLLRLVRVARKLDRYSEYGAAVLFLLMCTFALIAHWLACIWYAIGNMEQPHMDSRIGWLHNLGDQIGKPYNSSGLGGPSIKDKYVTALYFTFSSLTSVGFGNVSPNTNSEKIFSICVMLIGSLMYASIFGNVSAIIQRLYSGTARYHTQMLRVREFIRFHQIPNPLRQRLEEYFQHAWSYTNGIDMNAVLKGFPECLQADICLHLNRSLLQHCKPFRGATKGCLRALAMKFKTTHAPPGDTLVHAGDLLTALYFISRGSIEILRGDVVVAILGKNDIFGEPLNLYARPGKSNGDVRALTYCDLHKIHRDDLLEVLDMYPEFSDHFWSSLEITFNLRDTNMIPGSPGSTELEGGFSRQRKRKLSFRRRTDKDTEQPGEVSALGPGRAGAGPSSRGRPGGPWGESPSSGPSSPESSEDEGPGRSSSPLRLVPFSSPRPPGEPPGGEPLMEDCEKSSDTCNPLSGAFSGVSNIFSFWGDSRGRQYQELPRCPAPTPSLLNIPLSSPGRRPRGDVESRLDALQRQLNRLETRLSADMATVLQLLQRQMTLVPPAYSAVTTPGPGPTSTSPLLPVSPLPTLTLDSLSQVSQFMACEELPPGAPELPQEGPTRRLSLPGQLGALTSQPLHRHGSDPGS
row,SMILES,"hERG current change (%, negative = inhibition) at 10uM [%]"
1,Cc1ccc(S(=O)(=O)N(C)CC(=O)Nc2cccnc2)cc1,15.4
2,COc1cccc(NC(=O)CSc2nccn2-c2cccc(OC)c2)c1,2.22
3,N#Cc1c(N)n[nH]c1Cc1cccc2ccccc12,12.3
4,O=C1OC2(CCCC2)OC(=O)C1=Cc1c[nH]c2ccccc12,2.88
5,O=C1c2ccccc2N(Cc2ccc(Cl)cc2)C2=NCCN12,-13.5
6,OCC1(Cc2ccccc2)CCCN(Cc2ccc3c(c2)OCCO3)C1 (stereo not drawn),-24.6
7,CN(C)CCCN1C(=O)c2oc3ccc(Cl)cc3c(=O)c2C1c1cccnc1 (stereo not drawn),-13.4
8,CCOc1ccc(NC(=O)Cc2c(O)c3ccccc3[nH]c2=O)cc1,11.2
9,CC(C)(C)NC(=S)NCC1CC1,5.86
10,O=S1(=O)CCC(NS(=O)(=O)c2cccc3cccnc23)C1 (stereo not drawn),8.74
11,O=C(c1ccco1)N(Cc1ccc2c(c1)OCO2)Cc1cc2cc3c(cc2[nH]c1=O)OCO3,-5.94
12,CCOC(=O)c1cnc2c(N=Nc3ccccc3)c(N)nn2c1N,22.7
13,CC1CCC(NC(=O)c2ccc3snnc3c2)CC1 (stereo not drawn),21.3
14,CCCOc1ccc(NC(=O)C2CC(=O)N/C(=N/N=C(C)/C=C/c3ccc(N(C)C)cc3)S2)cc1 (stereo not drawn),24.4
15,CCC1(c2ccc(F)cc2)NC(=O)N(CC(=O)N2c3ccccc3CC2C)C1=O (stereo not drawn),-12.9
16,COc1ccc(S(=O)(=O)N2CCCC2C(=O)NCc2cccs2)cc1 (stereo not drawn),-2.41
17,COC(=O)Cc1csc(NCc2ccccc2)n1,7.78
18,Clc1ccc(Nc2nc(NCCN3CCOCC3)nc(N3CCOCC3)n2)cc1,-56
19,CCc1ccc(S(=O)(=O)NCc2cccnc2)cc1,17.8
20,CCN1CCN(C(=O)c2nn(C)c3c2CS(=O)(=O)c2ccccc2-3)CC1,12
21,CCCOC(=O)CCCCC1SCC(NC(=O)OC)C1NC(=O)OC (stereo not drawn),-8.07
22,Nc1nonc1-n1nnc(C(=O)N/N=C/c2ccc(Cl)cc2Cl)c1CN1CCCC1,19.1
23,COC(=O)C1=C(c2ccc(-c3ccccc3)c(F)c2)C[C@@H]2CC[C@H]1N2C(=O)N1CCc2cc(OC)c(OC)cc2C1,17.9
24,COc1ccc(CCn2c(NN=C3CCCCC3)nc3c2c(=O)[nH]c(=O)n3C)cc1,0.199
